{
  "source": "patent US20170368082A1",
  "about": "“FORMULATIONS OF BRINCIDOFOVIR” (priority 2016, published 2017)",
  "test": "Tissue distribution by quantitative whole-body autoradiography (QWBA)",
  "format": "in vivo, male Sprague Dawley and Long-Evans rats",
  "conditions": "15 mg/kg IV",
  "procedure": "The study utilized 4 groups of male SD rats (albino), and 3 groups of male LE rats (pigmented); a total of 39 rats. All animals were obtained from Hilltop Lab Animals, Inc. (Scottdale, Pa.). […] Rats in Group 5 were administered a single 2-h IV infusion of [^14C]brincidofovir at a target dose of 2 mg/kg. […] Three dosing formulations (one for high dose IV, one for low dose IV, and one for PO dose) were prepared at QPS on the day of dosing. The IV formulation for Groups 1, 2, 3, and 4 contained a vehicle of 10 mM sodium phosphate buffer in 5% dextrose solution at pH 8.0(±0.1).\nEach animal, at their respective termination time points, was euthanized for QWBA analysis immediately after blood collection. One rat per time point per Group was euthanized as listed below.\nThe blood samples were maintained on wet ice (approximately 4° C.) and then centrifuged to obtain plasma within 1 h of the blood collection time. Centrifuge settings were recorded in the study notebook. Duplicate aliquots of plasma (0.050 mL) were analyzed for radioactivity using direct counting by LSC, and residual plasma was stored at approximately −70° C. and was saved for possible future analysis under a separate study protocol. Residual red blood cells were discarded as radioactive waste.\nThe pinna, distal limbs, hair, and tail were removed from each frozen carcass and each frozen carcass was embedded in an aqueous suspension of approximately 2% (w/v) carboxymethylcellulose and frozen into a block. The blocks were stored at approximately −20° C. prior to sectioning. Each blocked carcass was mounted on the object stage of a cryomicrotome (Leica CM3600 Cryomacrocut, Nussloch, Germany and Vibratome 9800, St. Louis, Mo.) maintained at approximately −20° C. and internal standards (3), which were plasma fortified with [^14C]-glucose at one concentration (approximately 0.05 μCi/mL), were placed into the frozen blocks, prior to sectioning, and were used for section thickness quality control. A number of whole-body sections (approximately 40 μm thick) were taken in the sagittal plane at various levels of interest using a whole-body cryomicrotome set at −20° C. Sagittal sections (20-50 μm thick) of frozen carcasses were exposed to phosphor imaging plates. Regions of images in tissues were converted to concentrations using standards. All of the major tissues, organs, and biological fluids were represented.\nTissue concentration data was determined for the following tissues and/or contents: adipose (brown and white), adrenal gland, bile (in duct), blood (cardiac), bone, bone marrow, brain (cerebrum, cerebellum, medulla), cecum (and contents), large intestine (and contents), epididymis, esophagus, eye (uvea and lens), Harderian gland, heart, kidney (cortex and medulla), liver, lung, lymph node, pancreas, pituitary gland, prostate gland, salivary gland, seminal vesicles, skeletal muscle, skin (pigmented and non-pigmented), small intestine (and contents), stomach (gastric mucosa and contents), spleen, spinal cord, testis, thymus, thyroid, and urinary bladder (and contents).\nThe imaging plate and sections were placed in light-tight exposure cassettes, in a copper-lined lead safe, for a 4-day exposure at room temperature. […] Quantification was performed by image densitometry using MCD image analysis software (v. 7.0, Interfocus Imaging Ltd) and a standard curve constructed from the integrated response [i.e., Molecular Dynamics Counts per square millimeter (MDC/mm^2)] and the nominal concentrations of the ^14C-calibration standards. The concentrations of radioactivity were expressed as the μg equivalents of [^14C]brincidofovir per gram sample (μg equiv/g). A lower limit of quantification (LLOQ) was applied to the data (See section 6.7.4).\nTissue concentrations that fell below the LLOQ were identified as being below the quantification limit (BQL). Tissue areas that were not visualized on autoradiographic images were identified as no sample (NS) and reported as BQL.",
  "note": "Further values from the same series stand in other lists.",
  "data": [
    {"smiles": "CCCCCCCCCCCCCCCCOCCCOP(=O)(O)CO[C@H](CO)Cn1ccc(N)nc1=O", "note": "[[^14C]brincidofovir]", "values": [
      {"measurement": "Concentration of radioactivity", "setting": "Small Intestine (contents), 2 h, SD rat", "value": 95.869, "unit": "μg equiv./g"},
      {"measurement": "Concentration of radioactivity", "setting": "Small Intestine (contents), 4 h, LE rat", "value": 55.541, "unit": "μg equiv/g tissue"},
      {"measurement": "Concentration of radioactivity", "setting": "Small Intestine (contents), 8 h, LE rat", "value": 22.421, "unit": "μg equiv/g tissue"},
      {"measurement": "Concentration of radioactivity", "setting": "Small Intestine (contents), 24 h, LE rat", "value": 0.962, "unit": "μg equiv/g tissue"},
      {"measurement": "Concentration of radioactivity", "setting": "Small Intestine (contents), 24 h, SD rat", "value": 66.664, "unit": "μg equiv./g"},
      {"measurement": "Concentration of radioactivity", "setting": "Small Intestine (contents), 72 h, LE rat", "value": 0.615, "unit": "μg equiv/g tissue"},
      {"measurement": "Concentration of radioactivity", "setting": "Small Intestine (contents), 96 h, LE rat", "value": 0.120, "unit": "μg equiv/g tissue"},
      {"measurement": "Concentration of radioactivity", "setting": "Small Intestine (contents), 168 h, LE rat", "value": "BQL (BQL = Value is below the LLOQ)"},
      {"measurement": "Concentration of radioactivity", "setting": "Small Intestine (contents), 168 h, SD rat", "value": 0.039, "unit": "μg equiv./g"},
      {"measurement": "Concentration of radioactivity", "setting": "Small Intestine (contents), 840 h, LE rat", "value": "BQL (BQL = Value is below the LLOQ)"},
      {"measurement": "Concentration of radioactivity", "setting": "Small Intestine, 1 h, LE rat", "value": 6.622, "unit": "μg equiv/g tissue"},
      {"measurement": "Concentration of radioactivity", "setting": "Small Intestine, 2 h, LE rat", "value": 71.029, "unit": "μg equiv/g tissue"},
      {"measurement": "Concentration of radioactivity", "setting": "Small Intestine, 2 h, SD rat", "value": 43.741, "unit": "μg equiv./g"},
      {"measurement": "Concentration of radioactivity", "setting": "Small Intestine, 4 h, LE rat", "value": 42.479, "unit": "μg equiv/g tissue"},
      {"measurement": "Concentration of radioactivity", "setting": "Small Intestine, 8 h, LE rat", "value": 48.384, "unit": "μg equiv/g tissue"},
      {"measurement": "Concentration of radioactivity", "setting": "Small Intestine, 24 h, LE rat", "value": 3.184, "unit": "μg equiv/g tissue"},
      {"measurement": "Concentration of radioactivity", "setting": "Small Intestine, 24 h, SD rat", "value": 6.290, "unit": "μg equiv./g"},
      {"measurement": "Concentration of radioactivity", "setting": "Small Intestine, 72 h, LE rat", "value": 4.569, "unit": "μg equiv/g tissue"},
      {"measurement": "Concentration of radioactivity", "setting": "Small Intestine, 96 h, LE rat", "value": 0.911, "unit": "μg equiv/g tissue"},
      {"measurement": "Concentration of radioactivity", "setting": "Small Intestine, 168 h, LE rat", "value": 0.339, "unit": "μg equiv/g tissue"},
      {"measurement": "Concentration of radioactivity", "setting": "Small Intestine, 168 h, SD rat", "value": 1.704, "unit": "μg equiv./g"},
      {"measurement": "Concentration of radioactivity", "setting": "Small Intestine, 840 h, LE rat", "value": "BQL (BQL = Value is below the LLOQ)"},
      {"measurement": "Concentration of radioactivity", "setting": "Spinal Cord, 1 h, LE rat", "value": 0.462, "unit": "μg equiv/g tissue"},
      {"measurement": "Concentration of radioactivity", "setting": "Spinal Cord, 2 h, LE rat", "value": 0.940, "unit": "μg equiv/g tissue"},
      {"measurement": "Concentration of radioactivity", "setting": "Spinal Cord, 4 h, LE rat", "value": 0.277, "unit": "μg equiv/g tissue"},
      {"measurement": "Concentration of radioactivity", "setting": "Spinal Cord, 8 h, LE rat", "value": 0.116, "unit": "μg equiv/g tissue"},
      {"measurement": "Concentration of radioactivity", "setting": "Spinal Cord, 24 h, LE rat", "value": 0.060, "unit": "μg equiv/g tissue"},
      {"measurement": "Concentration of radioactivity", "setting": "Spinal Cord, 72 h, LE rat", "value": "BQL (BQL = Value is below the LLOQ)"},
      {"measurement": "Concentration of radioactivity", "setting": "Spinal Cord, 96 h, LE rat", "value": "BQL (BQL = Value is below the LLOQ)"},
      {"measurement": "Concentration of radioactivity", "setting": "Spinal Cord, 168 h, LE rat", "value": "BQL (BQL = Value is below the LLOQ)"},
      {"measurement": "Concentration of radioactivity", "setting": "Spinal Cord, 840 h, LE rat", "value": "BQL (BQL = Value is below the LLOQ)"},
      {"measurement": "Concentration of radioactivity", "setting": "Spleen, 1 h, LE rat", "value": 2.081, "unit": "μg equiv/g tissue"},
      {"measurement": "Concentration of radioactivity", "setting": "Spleen, 2 h, LE rat", "value": 4.314, "unit": "μg equiv/g tissue"},
      {"measurement": "Concentration of radioactivity", "setting": "Spleen, 4 h, LE rat", "value": 3.249, "unit": "μg equiv/g tissue"},
      {"measurement": "Concentration of radioactivity", "setting": "Spleen, 8 h, LE rat", "value": 2.728, "unit": "μg equiv/g tissue"},
      {"measurement": "Concentration of radioactivity", "setting": "Spleen, 24 h, LE rat", "value": 1.870, "unit": "μg equiv/g tissue"},
      {"measurement": "Concentration of radioactivity", "setting": "Spleen, 72 h, LE rat", "value": 1.675, "unit": "μg equiv/g tissue"},
      {"measurement": "Concentration of radioactivity", "setting": "Spleen, 96 h, LE rat", "value": 1.106, "unit": "μg equiv/g tissue"},
      {"measurement": "Concentration of radioactivity", "setting": "Spleen, 168 h, LE rat", "value": 0.892, "unit": "μg equiv/g tissue"},
      {"measurement": "Concentration of radioactivity", "setting": "Spleen, 840 h, LE rat", "value": 0.273, "unit": "μg equiv/g tissue"},
      {"measurement": "Concentration of radioactivity", "setting": "Stomach (contents), 1 h, LE rat", "value": 1.125, "unit": "μg equiv/g tissue"},
      {"measurement": "Concentration of radioactivity", "setting": "Stomach (contents), 2 h, LE rat", "value": 6.178, "unit": "μg equiv/g tissue"},
      {"measurement": "Concentration of radioactivity", "setting": "Stomach (contents), 2 h, SD rat", "value": 3.827, "unit": "μg equiv./g"},
      {"measurement": "Concentration of radioactivity", "setting": "Stomach (contents), 4 h, LE rat", "value": 0.960, "unit": "μg equiv/g tissue"},
      {"measurement": "Concentration of radioactivity", "setting": "Stomach (contents), 8 h, LE rat", "value": 10.997, "unit": "μg equiv/g tissue"},
      {"measurement": "Concentration of radioactivity", "setting": "Stomach (contents), 24 h, LE rat", "value": 0.170, "unit": "μg equiv/g tissue"},
      {"measurement": "Concentration of radioactivity", "setting": "Stomach (contents), 24 h, SD rat", "value": 26.408, "unit": "μg equiv./g"},
      {"measurement": "Concentration of radioactivity", "setting": "Stomach (contents), 72 h, LE rat", "value": 0.080, "unit": "μg equiv/g tissue"},
      {"measurement": "Concentration of radioactivity", "setting": "Stomach (contents), 96 h, LE rat", "value": "BQL (BQL = Value is below the LLOQ)"},
      {"measurement": "Concentration of radioactivity", "setting": "Stomach (contents), 168 h, LE rat", "value": "BQL (BQL = Value is below the LLOQ)"},
      {"measurement": "Concentration of radioactivity", "setting": "Stomach (contents), 168 h, SD rat", "value": 0.051, "unit": "μg equiv./g"},
      {"measurement": "Concentration of radioactivity", "setting": "Stomach (contents), 840 h, LE rat", "value": "BQL (BQL = Value is below the LLOQ)"},
      {"measurement": "Concentration of radioactivity", "setting": "Stomach (gastric mucosa), 1 h, LE rat", "value": 1.446, "unit": "μg equiv/g tissue"},
      {"measurement": "Concentration of radioactivity", "setting": "Stomach (gastric mucosa), 2 h, LE rat", "value": 2.518, "unit": "μg equiv/g tissue"}
    ]}
  ]
}
